Test results published in PubChem BioAssay AID2546 (National Center for Advancing Translational Sciences (NCATS), 2010).
The whole screen tested about 310,000 compounds, of which about 11,000 (3.5%) were called active. The shares of active, inactive and inconclusive entries below differ from those in the screen. Calls follow the shape of the dose curve; as a rule, active = well fitted inhibition curve with a large enough effect; inconclusive = small, poorly fitted or top-dose-only effect, or effect the other way; inactive = flat fitted curve, though single readings scatter. Potencies of inconclusive entries are left out as doubtful fits.

assay: VP16 counterscreen qHTS for inhibitors of ROR gamma transcriptional activity; conditions: Drosophila S2 Gal4-VP16 UAS-luciferase, luminescence, 20 h; activity, negative = inhibition: at 53.6 µM (top of the series);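 also: Gal4-VP16 expression switched on by copper sulfate through the metallothionein promoter; nearly all actives have a fitted effect of over 50% in size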
% is scaled to controls: 0 for no effect and ±100 for the full control effect; potency is read from the fitted curve at half-maximal effect; tags tell the direction and shape of the fitted curve.

Structure (SMILES) | Potency | activity, negative = inhibition
Cc1ccc2nc(-c3ccc(N)cc3)sc2c1 | active: 10 µM | –
Cc1ccc(OS(=O)(=O)c2ccccc2)c(/C=N/N=C2\NC(=O)C(C)S2)c1 (stereo not drawn) | active: 15.8 µM | –
CCOc1ccc(C2C(C(=O)C3CC3)N3C=C(C#N)C=CC3C2(C#N)C#N)cc1 (stereo not drawn) | inconclusive [inhibitor, single point] | –
N#CC(=C1CCCC1)c1nc(-c2ccccc2)cs1 | inconclusive [inhibitor, single point] | –
Oc1ccc(CN2CCCCC2)c2cccnc12 | active: 7.94 µM | –
O=C(c1cccc(F)c1)N1CCC2(CCCN(C(c3ccccc3)c3ccccc3)C2)CC1 | – | inactive: -7.34%
CC(C)CNC(=O)c1cccc(NC(=O)c2ccc(NC(=O)c3ccco3)cc2)c1 | inconclusive [inhibitor, single point] | –
C=CCn1c2ccccc2c2nnc(SCc3[nH]c(=O)[nH]c3C(=O)CCCCC(=O)OCC)nc21 | inconclusive [inhibitor, single point] | –
N/C(=N\OC(=O)COc1ccccc1Cl)c1ccccn1 | inconclusive [inhibitor, partial curve] | –
Cc1ccc(NC(=O)CN2CCC(NC(=O)C3CCCCC3)CC2)c(Br)c1 | – | inactive: -7.34%
O=C(CN1CCC(n2nnc3cc(F)ccc32)CC1)N1CCCc2ccccc21 | – | inactive: -1.82%
COc1ccc(N2CCN(C(=O)c3ccc(Oc4ccc(C(F)(F)F)cn4)cc3)CC2)cc1 | inconclusive [inhibitor, single point] | –
Cn1c(Oc2ccccc2NCc2cc(Br)ccc2O)cc(=O)n(C)c1=O | inconclusive [inhibitor, single point] | –
CC1(C)CC2CC(C)(CN2S(=O)(=O)c2ccc(C(=O)Nc3cccc(S(=O)(=O)N4CCOCC4)c3)cc2)C1 (stereo not drawn) | active: 0.501 µM | –
O=C(Nc1nccs1)c1ncc(Cl)c(Cl)c1Cl | active: 3.98 µM | –
Cn1c(C(=O)Nc2ccc3c(c2)OCCO3)cc2c(=O)n(C)c3ccccc3c21 | – | inactive: 2.62%
C=CCNC(=S)Nc1ccc(Cl)cc1 | inconclusive [inhibitor, single point] | –
COc1ccc(-c2nc(C(=O)NCCCN3CCOCC3)cc3c2[nH]c2ccccc23)cc1OC | inconclusive [inhibitor, single point] | –
COc1ccc(NC(=O)ON=C2c3ccccc3-c3ccccc32)cc1 | inconclusive [inhibitor, single point] | –
Cc1ccc(CS(=O)(=O)c2ncc(Cl)c(C(=O)Nc3nnc(C)s3)n2)cc1 | active: 6.31 µM | –
CCOC(=O)c1c(CN2CCCCC2)oc2ccc(O)cc12 | – | inactive: -0.844%
COc1ccc(-c2nc3nc(SC)nn3cc2C)cc1F | active: 25.1 µM | –
O=C(O)c1ccc2c3c1cccc3c(=O)n1c3ccccc3nc21 | inconclusive [inhibitor, full curve] | –
C=Cn1cc[n+](CC(=O)c2cc(C(C)(C)C)c(O)c(C(C)(C)C)c2)c1 | – | inactive: -12.5%
CC(C)(C)n1ncc2c(=O)n(CC(=O)NC3CCCCC3)cnc21 | inconclusive [inhibitor, single point] | –
Cc1ccc(-c2[nH]c(-c3ccccc3)nc2SCC(=O)NCC2CCCO2)cc1 (stereo not drawn) | inconclusive [inhibitor, single point] | –

Structure (SMILES) | Potency | activity, negative = inhibition
CCC(=O)Nc1nc2cc(OC)ccc2s1 | inconclusive [inhibitor, partial curve] | –
Cn1sc(NC(=O)c2ccc(Cl)cc2)nc1=O | – | inactive: -8.8%
CC(C)Cn1cnc2c(c(-c3ccccc3)c(-c3ccccc3)n2Cc2ccco2)c1=N | – | inactive: -36.2%
Cc1nc(CCN2C(=O)c3ccccc3C2=O)n[nH]1 | – | inactive: 12.7%
COC(=O)c1ccc(N2CCN(c3ccccc3)CC2)nc1 | inconclusive [activator, full curve, poor fit] | –
CCOC(=O)c1cccc(Nc2ncnc3ccc(C)cc23)c1 | – | inactive: -0.557%
CC1=C(/C=C/C(C)=N\NC(=O)c2ccncc2)C(C)(C)CCC1 | inconclusive [inhibitor, single point] | –
Cc1ccc(Nc2nnc(SC3CCOC3=O)s2)cc1 (stereo not drawn) | inconclusive [activator, full curve, poor fit] | –
COC(=O)c1sc(NC(=O)c2cccc([N+](=O)[O-])c2)c(C(N)=O)c1C | inconclusive [inhibitor, single point] | –
CC(=O)c1c(C)[nH]c(C(=O)OCC(=O)Nc2ccc(Cl)cc2[N+](=O)[O-])c1C | active: 5.01 µM | –
CN(C(=O)COC(=O)c1ccc(S(=O)(=O)N2CCOCC2)cc1)C1CCCCC1 | – | inactive: 5.25%
O=Cc1cn(CCOc2ccccc2F)c2ccccc12 | – | inactive: -26.1%
CCOC(=O)c1ccc(NS(=O)(=O)c2ccc(SC)cc2)cc1 | inconclusive [inhibitor, single point] | –
COc1ccc(OC)c(S(=O)(=O)N2CCC(C(=O)Nc3cccc(C)c3C)CC2)c1 | – | inactive: -2.39%
COc1ccccc1-c1cn[nH]c1-c1ccc(O)cc1O | inconclusive [inhibitor, single point] | –
O=c1oc(-c2cccs2)nc2sc3c(c12)CCCC3 | inconclusive [inhibitor, partial curve] | –
Cn1c(=O)c2c(nc(Cl)n2CCOc2ccccc2)n(C)c1=O | inconclusive [inhibitor, single point] | –
Cc1[nH]nc2c1C(c1ccc(-c3ccccc3C#N)o1)C(C#N)=C(N)O2 (stereo not drawn) | inconclusive [inhibitor, single point] | –
CCNc1cc(S(=O)(=O)C(F)(F)F)ccc1N | inconclusive [inhibitor, partial curve] | –
COC(=O)CCC(NC(=O)c1cc(-c2ccc3c(c2)OCCO3)oc1C)C(=O)OC (stereo not drawn) | – | inactive: 18.5%
CCc1ccc(-c2cc(C(=O)NCc3ccccn3)c3ccccc3n2)cc1 | inconclusive [inhibitor, single point] | –
CCN1/C(=C/c2ccc3ccccc3[n+]2CC)C=Cc2ccccc21 | active: 2.82 µM | –
N/C(Cn1cncn1)=N\NC(=O)c1ccc(Cl)cc1Cl | inconclusive [inhibitor, single point] | –
CC(C)CC(=O)N1CCC(N2CCN(c3ccccc3)CC2)CC1 | – | inactive: -14.2%
COc1cc([N+](=O)[O-])ccc1NC(=O)C[n+]1ccccc1C | inconclusive [inhibitor, partial curve, poor fit] | –
O=[N+]([O-])c1cccnc1N1CCC(c2cc(-c3cccc(C(F)(F)F)c3)n[nH]2)CC1 | inconclusive [inhibitor, single point] | –

Structure (SMILES) | Potency | activity, negative = inhibition
Cc1ccc(Nc2nc(N)nc(CN3CCN(c4ccccc4)CC3)n2)cc1Cl | – | inactive: -1.56%
CC(=O)c1ccc(NC(=S)NC(=O)CC(C)C)cc1 | inconclusive [activator, partial curve] | –
COc1ccc(/C(C)=N/N2C(C)CCCC2C)c(OC)c1 (stereo not drawn) | inconclusive [inhibitor, partial curve] | –
CCOC(=O)c1ccc(NC(=S)N(CCN(C)C)C(C)c2ccncc2)cc1 (stereo not drawn) | – | inactive: 0.936%
COc1ccc(/C=N/NC(=S)Nc2ccccc2)cc1COc1cccc(C)c1C | active: 0.708 µM | –
S=C(Nc1cccc(Cl)c1Cl)Nn1cnnc1 | inconclusive [inhibitor, single point] | –
O=C(NC12CC3CC(CC(C3)C1)C2)N(Cc1ccccc1)Cc1ccncc1 | – | inactive: 4.07%
CCc1ccccc1S(=O)(=O)Cc1ccc(C(=O)NC2CCCC2)o1 | – | inactive: 6.76%
CCOc1ccc(/C=N/NC(=O)c2[nH]ncc2Br)c(O)c1 | active: 11.2 µM | –
c1ccc(-n2ncc3c(N4CCCCC4)ncnc32)cc1 | active: 5.62 µM | –
Cc1cccc(-n2c(SCC(=O)NCc3ccc4c(c3)OCO4)nc3ccccc3c2=O)c1 | – | inactive: 25.5%
CCn1c(=S)[nH]c2sc3c(c2c1=O)CCCC3 | active: 0.631 µM | –
CCCc1nc2ccccc2n1Cc1ccccc1OC | inconclusive [inhibitor, partial curve, poor fit] | –
CC1=NN(C(=O)c2csc(C)c2)C(O)(C(F)(F)F)C1 (stereo not drawn) | active: 5.62 µM | –
CCCn1c(C)cs/c1=N\C(=S)Nc1ccccc1 | active: 5.62 µM | –
O=S(=O)(CCSc1ccccn1)c1nc2ccccc2s1 | inconclusive [inhibitor, single point] | –
CC(C)c1ccccc1NC(=S)NCC1(N(C)C)CCCCC1 | inconclusive [inhibitor, partial curve] | –
COc1ccc(CC(=O)NNC(=O)c2ccccn2)cc1 | – | inactive: -20.8%
CCOC(=O)n1c(=O)n(Cc2ccc(Cl)c(Cl)c2)c2ccccc21 | inconclusive [inhibitor, partial curve, poor fit] | –
COc1ccc(CNC(=O)C2CCCN2C)cc1OC (stereo not drawn) | – | inactive: 1.45%
COc1ccc(C(C(=O)NC2CCCC2)N(C(=O)c2ccoc2C)c2ccccc2)cc1 (stereo not drawn) | – | inactive: -1.14%
Cc1ccc(C)c(NC(=S)c2ccccn2)c1 | active: 1.26 µM | –
CCOc1ccccc1NC(=S)Nc1ccc(S(N)(=O)=O)cc1 | – | inactive: -25.7%
CCOc1ccccc1C(=S)NC1CCCCC1 | inconclusive [inhibitor, single point] | –
Clc1ccc(-c2nnc(-c3ccccc3Cl)o2)cc1 | inconclusive [inhibitor, single point] | –
O=C(/C=C/c1ccc(Cl)cc1Cl)N1CCc2ccccc21 | inconclusive [inhibitor, single point] | –
